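These data come from cells grown in 96-well plates and exposed to compound for 48 hours at five concentrations. GI50 = concentration required for 50% inhibition of growth. The concentration for full growth arrest is given as TGI.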
Each compound was assayed on NCI-H322M lung (assay: growth of human tumour cells (NCI), 48 h).

Structure (SMILES)	GI50 [nM]	TGI [µM]
CCOC(=O)c1c(NC(=O)c2ccc(C(F)(F)F)cc2)sc2c(CN3CCN(C)CC3)c(O)ccc12	1860	3.82
O=C(N/N=C/c1ccc([N+](=O)[O-])o1)c1[nH]c2ccc(Br)cc2c1-c1ccccc1	1360	29.8
Cc1cccc2sc(/N=C(\N)C(Br)Br)nc12	3270	14.2
Fc1ccc(-c2cc3nc(C(Cl)Cl)nc(-c4ccco4)n3n2)cc1	633	3.5
COc1ccc(Cn2cc3c(c2-c2cc(OC)c(OC)c(OC)c2)CCCc2cnoc2-3)cc1	3280	> 100

— PubChem BioAssay (NCI)
